This series deals with the molecule itself. The series is described as follows: SEC; analytical S200 gel filtration, TPI at 1.5 mg/ml for each variant, 20 mM Tris-HCl pH 8, 200 mM NaCl, 1 mM beta-ME. Background: Size exclusion chromatography separates by hydrodynamic size, large species first.

B1: human triosephosphate isomerase E105D (enzyme)
chain: not shown
notes: triosephosphate isomerase, human, common patient variant p.E105D (c.315G>C); Variant found in patients; also called TPI^E105D; E104D (classical numbering)
For the protein B1, the binding result is recorded as “binds”.

B2: human triosephosphate isomerase Q181P (enzyme)
chain: not shown
notes: triosephosphate isomerase, human, patient variant p.Q181P (c.542A>C); Variant found in patients; also called TPI^Q181P; hTPI^Q181P
As to B2, the “stoichiometry N” value was found to be 2.

Broadly, the stoichiometry N is a count of units in the complex or per binding partner.
